# The campaign covered roughly 150,000 compounds. About 6,500 (4.3%) were called active. This list was built around the results that the source calls inconclusive (neither active nor inactive); the mix of calls is not that of the screen. Calls come from the whole dose curve; as a rule, active = well fitted inhibition curve with a large enough effect (not every such curve was filed as active); inconclusive = small, poorly fitted or top-dose-only effect, or another doubt; inactive = no such curve, though single readings can be large or run the other way. Potencies of inconclusive entries are left out as doubtful fits.
# Target: 15-hydroxyprostaglandin dehydrogenase [NAD(+)] (Homo sapiens) (UniProt P15428)
# Assay: qHTS Assay for Inhibitors of HPGD (15-Hydroxyprostaglandin Dehydrogenase)
# Conditions: purified HPGD, NADH fluorescence kinetic, PGE2 substrate; activity change, negative = inhibition: stronger effect = lower value
# Summary of the method: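 NADH formation kinetics: reaction with 30 uM PGE2 and 1 mM NAD+ (final), 20 nM enzyme, Tris-HCl pH 8 with Tween 20, after 15 min compound preincubation at room temperature. Fluorescence change, last versus first of five reads.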
# % is set by controls: 0 for no effect and ±100 for the full control effect; potency is the fitted concentration of half-maximal effect; tags give direction and shape of the fitted curve.
# UniProt P15428, sequence (P15428 whole entry, looked up): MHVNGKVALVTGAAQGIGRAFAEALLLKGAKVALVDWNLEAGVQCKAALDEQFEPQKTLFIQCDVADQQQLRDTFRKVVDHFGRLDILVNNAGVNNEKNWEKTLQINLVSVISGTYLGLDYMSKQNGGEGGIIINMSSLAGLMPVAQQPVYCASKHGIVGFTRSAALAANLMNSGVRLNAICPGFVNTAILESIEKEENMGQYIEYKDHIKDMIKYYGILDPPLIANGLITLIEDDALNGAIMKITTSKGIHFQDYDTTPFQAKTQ
Compound,"activity change, negative = inhibition",Potency
CN1CCN(Cc2ccc(OCc3ccccc3)cc2)CC1,inactive: -0.124%,–
Brc1ccc(-c2nnc3n2CCCCC3)cc1,–,active: 7.08 µM
Cc1ccc(C(C)C)c(OCc2ccc(C(=O)N/N=C/c3ccc(O)c(O)c3)cc2)c1,–,"inconclusive [inhibitor, partial curve]"
Fc1ccc(CNC(=S)Nc2ccc(OC(F)F)cc2)cc1,inactive: -29%,–
Cc1cccc(N=C/C(C(=O)C(F)(F)F)=C(\O)c2ccco2)c1,inactive: 0.0635%,–
Cc1cc2cc(CNC(=O)c3ccc(S(=O)(=O)N4CCCCC4)cc3)ccc2n1C,inactive: -14.1%,–
CCc1nnc(NC(=O)/C=C/c2ccc(C)o2)s1,–,"inconclusive [inhibitor, partial curve, poor fit]"
COCCn1c(SCC(=O)OC(C)C)nnc1-c1ccccc1,inactive: -4.03%,–
CCc1nnc(NC(=O)CSc2nnc(-c3ccccc3NC(=O)c3ccccc3)o2)s1,–,"inconclusive [inhibitor, partial curve]"
COc1cc(/C=C/C(=O)OCC(=O)Nc2ccc(C)c(S(=O)(=O)N3CCCCC3)c2)ccc1O,–,"inconclusive [inhibitor, partial curve, poor fit]"
Cc1ccc(CN(CC(=O)NC2CCCC2)C(=O)CSc2nnc(COc3ccccc3)o2)cc1,–,active: 28.2 µM
CC(C)(C)NC(=O)[C@@H]1CC[C@@H]2[C@@H]3CC[C@@H]4NC(=O)C=C[C@@]4(C)[C@H]3CC[C@]21C,inactive: -5.48%,–
CCN(CC)c1ccc(-c2nnc(SCC(=O)Nc3ccccc3C#N)n2-c2ccccc2)cc1,–,"inconclusive [inhibitor, partial curve]"
COc1ccc(-c2nc(CC(=O)O)cs2)cc1,–,"inconclusive [inhibitor, partial curve]"
CCOc1ccc(-n2cnnn2)cc1S(=O)(=O)Nc1c(C)cccc1C,–,active: 14.1 µM
NNC(=O)CNC(c1ccccc1)c1cc(Br)ccc1NC(=O)c1ccc(Br)cc1 (stereo unspecified),–,"inconclusive [inhibitor, partial curve]"
Nc1ccc(Sc2ccccc2CC(=O)O)cc1,–,"inconclusive [inhibitor, partial curve, poor fit]"
COc1cc(OC)nc(N/N=C(\c2ccccc2)c2ccncc2)n1,inactive: -10.6%,–
COC(=O)CC#N,inactive: -5.83%,–
CC(C)C1Oc2ccccc2N(CC(=O)N(Cc2ccccn2)C2CC2)C1=O (stereo unspecified),inactive: -7.64%,–
CC1(C)CNC(=O)C=C(c2ccccc2)C1,–,"inconclusive [inhibitor, partial curve]"
